# Reference: PubChem BioAssay AID493208 (National Center for Advancing Translational Sciences (NCATS), 2011)
# Out of some 44,000 compounds screened, about 340 (0.77%) were called active. Roughly 5% stayed inconclusive and do not appear here. Calls follow the shape of the dose curve; as a rule, active = well fitted inhibition curve with a large enough effect; inconclusive = small, poorly fitted or top-dose-only effect; inactive = flat fitted curve, though single readings scatter. The list shows a part of the results.
# Experiment: Acumen qHTS Assay for Inhibitors of the mTORC1 Signaling Pathway in MEF (Tsc2-/-, p53-/-) Cells: Sytravon; also: nearly all actives have a fitted effect of over 50% in size;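 as to activity change, negative = inhibition: plate controls were DMSO for no effect and rapamycin for full effect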
# Details: phospho-rpS6 immunofluorescence/PI, 24 h; series mostly up to 38.3 µM; activity change, negative = inhibition: at the top concentration
# How it was run: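 Cell-based qHTS: Tsc2-/- p53-/- MEF, 24 h cpd, 37 °C; fix/perm, anti-phospho-S6 Alexa-488 + PI; Acumen 488 nm scan; pS6/PI ratio, % positive cells; rapamycin 7.5 nM = inhibition ref; PI count = viability.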
# Potency is read from the fitted curve at half-maximal effect.
Structure (SMILES),"activity change, negative = inhibition",Potency
CCCSc1ncc(Cl)c(C(=O)Nc2nc3ccc(C)cc3s2)n1,inactive: -15.5%,–
CSc1ccc(CCNC(=O)c2ccc3c(Cl)c4c(nc3c2)CCCC4)cc1,inactive: 4.02%,–
Cc1cc(C)c2c(CC(=O)Nc3ccccc3C(F)(F)F)coc2c1,inactive: -6.81%,–
Cc1nn2c(=O)cc(COC(=O)c3cccs3)nc2s1,inactive: 4.84%,–
COc1ccc(S(=O)(=O)c2c(O)c3ccc(C(=O)Nc4ccccc4)cc3[nH]c2=O)cc1,inactive: 1.06%,–
CCc1nn(CC(=O)Nc2cccc(C(C)=O)c2)c(=O)c2cc3sccc3n12,inactive: -3.86%,–
CCS(=O)(=O)c1ncc(Cl)c(C(=O)NCc2ccc(OC)cc2)n1,–,active: 3.69 µM
Cc1cccc(NC(=O)C2CCN(c3nnc(C)c4c(C)n(-c5ccccc5)nc34)CC2)c1C,inactive: -3.19%,–
O=C(NCc1ccccc1)C(=O)NCC(c1ccco1)S(=O)(=O)c1cccs1 (stereo unspecified),inactive: 0.634%,–
Cc1ccc(Cl)cc1NC(=O)C1CCCN(c2cnccn2)C1 (stereo unspecified),inactive: 4.21%,–
CN(C)c1ccc(C(CNS(=O)(=O)c2ccc(Cl)cc2)N2CCOCC2)cc1 (stereo unspecified),inactive: -3.43%,–
CN(c1ccccc1C(=O)O)S(=O)(=O)c1ccc2[nH]c(=O)oc2c1,inactive: -5.12%,–
CCOC(=O)c1ccccc1NC(=O)Cn1c(=O)n(Cc2nc(C)no2)c(=O)c2ccccc21,inactive: -9.79%,–
O=C(CCn1c(=O)c2ccccc2n(Cc2cccc(Cl)c2)c1=O)NCCc1ccccc1,inactive: -3.15%,–
CCN(CCCNC(=O)CSc1cc(=O)n(CC)c2ccccc12)c1ccccc1,inactive: -8.88%,–
CCc1ccc(NC(=O)Nc2cn(C)c(=O)c3ccccc23)cc1,inactive: -22.5%,–
O=C(NC1CCCC1)c1ccc2c(=O)n(Cc3ccccc3)c(SCc3ccc([N+](=O)[O-])cc3)nc2c1,inactive: 1.09%,–
CCc1ccc(CNC(=O)Cn2ccc3cc(S(=O)(=O)N4CCCCCC4)ccc32)cc1,inactive: 0%,–
COc1cccc(CNC(=O)CN2C(=O)CCc3cc(S(=O)(=O)N4CCOCC4)ccc32)c1,inactive: 7.06%,–
CCc1ccc(-n2nc(CO)c(C(=O)NC(C)c3ccc(Cl)cc3)n2)cc1 (stereo unspecified),inactive: -0.525%,–
COc1ccc(OC)c2sc(N(Cc3cccnc3)C(C)=O)nc12,inactive: 1.3%,–

Structure (SMILES),"activity change, negative = inhibition",Potency
Cc1ccc(Sc2ccc(N3CCCC(C(=O)Nc4ccc(Br)cc4)C3)nn2)cc1 (stereo unspecified),inactive: -0.323%,–
Cc1nc2ccn(Cc3cccnc3)c(=O)c2cc1C(=O)N1CCN(c2ccccc2F)CC1,inactive: 1.37%,–
Cc1c(C)n(Cc2ccccc2)c2ccc(C(=O)N3CCN(c4ccccc4F)CC3)cc12,inactive: 5.5%,–
O=C(NCCc1ccc(Cl)cc1)c1cc(-c2ccccc2)n[nH]1,inactive: -5.42%,–
CCOc1ccc(-c2nnc(SCC(=O)NC3CCCCC3)nc2-c2ccc(OCC)cc2)cc1,inactive: 2.42%,–
COc1ccc2c(c1)Cc1sc(NC(=O)c3ccccc3C)nc1-2,inactive: -2.7%,–
Cc1ccc(C)c(N2CCN(c3nc4ccccc4c(=O)n3-c3ccc(Cl)cc3)CC2)c1,inactive: -0.256%,–
COc1cccc(CNC(=O)c2ccc(-c3nc(CS(=O)c4ccccc4)c(C)o3)cc2)c1 (stereo unspecified),inactive: 1.34%,–
COc1ccc(NC(=O)Cn2cnc3ccc(S(=O)(=O)N4CCC(C)CC4)cc3c2=O)c(OC)c1,inactive: -2.36%,–
COc1ccc(C2=C(C)C(N3CCC(C(=O)NCc4ccc(C)o4)CC3)=NS2(=O)=O)cc1,inactive: 0%,–
CCN(CC)c1ccc(NC(=O)Cn2ncc3c(C)n(Cc4ccccc4F)c(C)c3c2=O)c(C)c1,inactive: 1.35%,–
COc1ccc(/C=C/C(=O)Nc2ccc(C)cc2)cc1,inactive: -1.42%,–
Cc1ccc(NC(=O)Cc2ccc(NC(=O)N3CCCCc4ccccc43)cc2)cc1Cl,inactive: 0.557%,–
COc1cccc(-c2nc(S(=O)(=O)c3ccc(C)cc3)c(N3CCCCCC3)o2)c1,inactive: -11.1%,–
CCOC(=O)c1ccc(N2C(=O)c3n[nH]c(-c4ccco4)c3C2c2ccc(OC)cc2OC)cc1 (stereo unspecified),inactive: -7.65%,–
CC(=O)c1ccc(NC(=O)Nc2ccc3snnc3c2)cc1,inactive: -5.97%,–
Cc1cccc(C)c1-n1ncc(C(=O)NCCCN2CCCCC2)c1C1CCN(C(=O)OC(C)(C)C)CC1,inactive: -0.486%,–
CCCCOc1ccc(C(=O)NCC(c2ccc(Cl)cc2)N2CCOCC2)cc1 (stereo unspecified),inactive: -20.9%,–
O=C(Nc1ccc(Oc2ccccc2)cc1)c1ccc(F)c(S(=O)(=O)N2CCN(c3cccc(Cl)c3)CC2)c1,inactive: -0.351%,–
COC(=O)c1nnn(-c2cccc(C)c2)c1N,inactive: 3.93%,–
CC(C)Oc1ccc(CNC(=O)CN2C(=O)CCn3nc(-c4cn(C)c5ccccc45)cc32)cc1,inactive: -6.29%,–

Structure (SMILES),"activity change, negative = inhibition",Potency
COc1ccc(-n2c(SCc3nc(-c4ccc(C)cc4)no3)nnc2-c2ccccc2)cc1,inactive: 2.71%,–
CCOC(=O)c1ccc(NC(=O)CN(Cc2ccc(C)cc2)S(=O)(=O)c2ccc(C)cc2)cc1,inactive: 20.5%,–
COC(=O)c1ccc(NC(=O)CSc2n[nH]c(-c3ccccc3)n2)cc1,inactive: -2.78%,–
CC1CN(C(=O)Nc2ccc(C(=O)NCc3ccccc3F)cc2)c2ccccc2S1 (stereo unspecified),inactive: -8.14%,–
Fc1ccccc1N1CCN(Cc2nnc(-c3ccc4c(c3)OCO4)o2)CC1,inactive: -4.8%,–
Cc1ccccc1OCC(=O)Nc1ccc2oc(-c3ccc(F)cc3)nc2c1,inactive: 7.26%,–
O=C(Nc1nc2c(Cl)cccc2s1)c1ccc(S(=O)(=O)N2CCc3ccccc32)cc1,inactive: -16.1%,–
Cc1ccc(C)c(N2C(=O)N(Cc3ccccc3C)c3ccccc3S2(=O)=O)c1,inactive: -0.729%,–
O=C(CSc1oc(-c2ccccc2)nc1S(=O)(=O)c1ccc(Br)cc1)c1ccccc1,inactive: 1.86%,–
COc1ccc(C)cc1NC(=O)COc1cc(=O)n(C)c2ccccc12,inactive: -4.32%,–
COc1ccc(NC(=O)c2ccco2)cc1NC(=O)COc1cccc(C)c1C,inactive: -9.05%,–
CCc1ccc(NC(=O)CN(C)S(=O)(=O)c2ccc3c(c2)c(=O)n(C)c(=O)n3C)cc1,inactive: -7.2%,–
CCOC(=O)c1cc2c(=O)n3ccccc3nc2n(Cc2ccco2)c1=NC(=O)c1ccc(Br)cc1,inactive: -1.69%,–
O=C(Nc1ccc(Br)cc1)c1ccc(F)c(S(=O)(=O)NC2CCCCCC2)c1,inactive: -16.7%,–
Cc1ccccc1-c1nc(SCC(=O)NCc2ccc(F)cc2)c2c(=O)n(C)c(=O)n(C)c2n1,inactive: 6.54%,–
COc1ccc(-c2nc(-c3cc4cc(Br)ccc4oc3=O)cs2)cc1,inactive: -0.333%,–
COc1ccccc1N1CCN(c2nc3ccccc3n3cnnc23)CC1,inactive: -1.9%,–
Cc1cccc(C)c1NC(=O)Nc1csc2c1CCCC2,inactive: 0.87%,–
O=C(CCn1nc(-c2ccccc2)c2ccccc2c1=O)Nc1ccccc1,inactive: 2.79%,–
